Measured values reported in the supplement of paper PMC10498489.
Hit rate of the full screen: of about 2,300 compounds, about 330 (14%) showed activity.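 The calls were made as follows: active = median modified Z-score above 1.96; inactive = 1.96 or below.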 Only a part is listed here, and it is no random draw.

system: HepG2 Srxn1-GFP reporter cells (+30 nM CDDO-Me); assay: Srxn1-GFP intensity median modified Z-score relative to plate median; higher = stronger NRF2 / oxidative stress reporter activation, active = hit call of the paper; conditions: 10 µM; exposure time: 24h
Method in brief: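 Per-cell cytoplasmic GFP was measured on confocal images of formaldehyde-fixed, Hoechst-stained HepG2 Srxn1-GFP BAC reporter cells, excluding images with fewer than 100 cells. Before this, the cells (20,000 per well, 96-well plates) were co-exposed for 24 h to compound at 10 μM and an NRF2 activator at 30 nM with ≤0.1% DMSO, in three replicate plates. Each value is the median over replicates of the per-plate modified Z-score of GFP intensity. That score was scaled with 1.4826 × median absolute deviation.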

| Structure (SMILES) | Srxn1-GFP intensity median modified Z-score |
| --- | --- |
| NCCCCN [euspeclibcmpd1490] | inactive: 1.1 |
| COC(=O)C1=C2C(=O)CC(C)C2C(O[C@@H]2O[C@H](CO)[C@@H](O)[C@H](O)[C@H]2O)OC1 (some centres not stated) [euspeclibcmpd2225] | inactive: -0.236 |
| CC(=O)OCC(=O)[C@@]1(O)CCC2C3CC=C4CC(=O)CC[C@]4(C)C3[C@@H](O)C[C@@]21C (some centres not stated) [euspeclibcmpd151] | inactive: -0.58 |
| O=c1[nH]c2cc(Cl)c(Cl)cc2[nH]c1=O [euspeclibcmpd2029] | inactive: 0.486 |
| COc1ccc2c3c1O[C@H]1C[C@@H](O)C=C[C@@]31CCN(C)C2 [euspeclibcmpd2292] | inactive: 0.484 |
| CON=C1CN(c2nc3c(cc2F)c(=O)c(C(=O)O)cn3C2CC2)CC1CN (configuration not stated) [euspeclibcmpd871] | inactive: -0.00523 |
| C=C[C@](C)(O)CC[C@@H]1[C@@]2(C)CCCC(C)(C)[C@@H]2CC[C@]1(C)O [euspeclibcmpd2213] | active: 2.3 |
| CC[N+](CC)(CC(=O)Nc1c(C)cccc1C)Cc1ccccc1 [euspeclibcmpd901] | inactive: 0.215 |
| C=C(C)[C@H]1COc2cc3oc(=O)ccc3cc2O1 [euspeclibcmpd1602] | inactive: -0.277 |
| COc1ccccc1-c1cc(=O)c2c(OC)cccc2o1 [euspeclibcmpd2107] | active: 2.2 |
| CN1CCN(CC(=O)N2c3ccccc3C(=O)Nc3cccnc32)CC1 [euspeclibcmpd395] | inactive: -0.0943 |
| CC(=O)N(CC(O)CO)c1c(I)c(C(=O)NCCO)c(I)c(C(=O)NCC(O)CO)c1I (configuration not stated) [euspeclibcmpd589] | inactive: -0.168 |
| CC1(C)O[C@H]2CC(=O)OC[C@]23[C@H]2CC[C@@]4(C)[C@H](c5ccoc5)OC(=O)C5O[C@]54[C@]2(C)C(=O)C[C@@H]13 (some centres not stated) [euspeclibcmpd1497] | inactive: 0.563 |
| COc1ccc2[nH]c3cc(Cl)ccc3c(=Nc3cc(CN4CCCC4)c(O)c(CN4CCCC4)c3)c2n1 [euspeclibcmpd1080] | active: 9.12 |
| CC1=NS(=O)(=O)c2cc(Cl)ccc2N1 [euspeclibcmpd950] | inactive: -0.78 |
| NC(Cn1ccc(=O)c(O)c1)C(=O)O (configuration not stated) [euspeclibcmpd1811] | inactive: -0.0137 |
| Cn1cc[nH]c1=S [euspeclibcmpd188] | inactive: -0.287 |
| O=C(O)CCCCCCCCCCCCC1C=CCC1 (configuration not stated) [euspeclibcmpd1516] | active: 10.6 |
| CCC1(c2ccccc2)C(=O)NCNC1=O [euspeclibcmpd245] | inactive: 0.413 |
| Oc1c(Cl)cc(Cl)c2cccnc12 [euspeclibcmpd537] | active: 2.82 |
| CN(C)CCC(c1ccc(Br)cc1)c1ccccn1 (configuration not stated) [euspeclibcmpd2105] | inactive: -0.111 |
| C[C@@](Cc1ccc(O)c(O)c1)(NN)C(=O)O [euspeclibcmpd440] | inactive: 0.573 |
| CCCCC(CC)COC(=O)CC(C(=O)OCC(CC)CCCC)S(=O)(=O)O (configuration not stated) [euspeclibcmpd1827] | inactive: -0.295 |
| Clc1ccc2c(c1)CCc1cccnc1C2=C1CCNCC1 [euspeclibcmpd2172] | inactive: 0.635 |

| Structure (SMILES) | Srxn1-GFP intensity median modified Z-score |
| --- | --- |
| Clc1ccc2c(c1)CCc1cccnc1C2=C1CCNCC1 [euspeclibcmpd2207] | inactive: 1.43 |
| O=C1NCC2(CCN(CCc3ccccc3)CC2)O1 [euspeclibcmpd372] | inactive: -0.351 |
| CO[C@H]1CC(O[C@@H]2/C(C)=C/C[C@@H]3C[C@@H](C[C@]4(CC[C@H](C)[C@@H](C5CCCCC5)O4)O3)OC(=O)C3=CC(C)C(=NO)C4OC/C(=C\C=C\[C@@H]2C)[C@@]34O)O[C@@H](C)C1O (some centres not stated) [euspeclibcmpd601] | active: 8.72 |
| CCCCCCCCCCOc1cc2c(=O)c(C(=O)OCC)c[nH]c2cc1OCC [euspeclibcmpd775] | inactive: 0 |
| CCN(CC)C(=O)c1ccc(O)c(OC)c1 [euspeclibcmpd904] | inactive: 0.0293 |
| O=C(c1ccc(F)cc1)C1CCN(CCn2c(=O)[nH]c3ccccc3c2=O)CC1 [euspeclibcmpd750] | inactive: 0.369 |
| CNCCc1ccccn1 [euspeclibcmpd332] | inactive: 0.673 |
| CC=CC(=O)N(CC)c1ccccc1C [euspeclibcmpd735] | inactive: -0.287 |
| CC(=O)NC1C(O)OC(CO)C(O)C1O (configuration not stated) [euspeclibcmpd1995] | inactive: -0.204 |
| CC(=O)OC/C=C(\C)CC/C=C(\C)CC/C=C(\C)CC/C=C(\C)CC/C=C(\C)CC/C=C(\C)CC/C=C(\C)CC/C=C(\C)CCC=C(C)C [euspeclibcmpd1594] | inactive: -0.267 |
| NCCCCCC(=O)O [euspeclibcmpd19] | inactive: 0.118 |
| CCN(CC)C(C)CN1c2ccccc2Sc2ccccc21 (configuration not stated) [euspeclibcmpd123] | inactive: 0.0767 |
| CCCNC(=O)NS(=O)(=O)c1ccc(Cl)cc1 [euspeclibcmpd60] | inactive: -0.231 |
| CC1(C)CC2C1CC[C@]1(C)CCC3C(C(=O)O)CC(=O)O[C@@]32C1 (some centres not stated) [euspeclibcmpd1368] | inactive: -0.0835 |
| Clc1cccc(Cl)c1NC1=NCCN1 [euspeclibcmpd70] | inactive: -0.00531 |
| O=C(O)CN(CCN(CC(=O)O)CC(=O)O)CC(=O)O | active: 2.26 |
| CCN(CC)CCOCCOC(=O)C1(c2ccccc2)CCCC1 [euspeclibcmpd389] | inactive: -0.0174 |
| CCN(CCCCOC(=O)c1ccc(OC)c(OC)c1)C(C)Cc1ccc(OC)cc1 (configuration not stated) [euspeclibcmpd380] | inactive: 0.0677 |
| Cc1cc(C(C)(C)C)cc(C)c1CC1=NCCN1 [euspeclibcmpd322] | inactive: -0.608 |
| CC(=O)Nc1ccc(OC(=O)c2ccccc2O)cc1 [euspeclibcmpd1988] | inactive: -0.258 |
| O=c1c(O)c(-c2ccc(O)cc2)oc2cc(O)cc(O)c12 [euspeclibcmpd2425] | inactive: -0.0385 |
| O=C(CCBr)N1CCN(C(=O)CCBr)CC1 [euspeclibcmpd576] | active: 2.59 |
| COc1cc(OC)c2ccc(=O)oc2c1 [euspeclibcmpd1704] | inactive: 0.0648 |
